Laboratory results published in PubChem BioAssay AID1671193 (National Center for Advancing Translational Sciences (NCATS), 2021).
Hit rate of the full screen: of about 150,000 compounds, about 180 (0.12%) were called active. This list was built around the results that the source calls inconclusive (neither active nor inactive); the mix of calls is not that of the screen. The call rests on the fitted dose curve; in most records, active means well fitted cell-killing curve with a large enough effect; inconclusive means small, poorly fitted or top-dose-only effect, or effect the other way; inactive means flat fitted curve, though single readings scatter. Potencies beside an inconclusive call are fits to weak or partial responses and may not hold up.

experiment: GF-AFC viability counterscreen for inhibitors of alpha-synuclein gene (SNCA) expression; conditions: HEK-293-SNCA-luc viability, GF-AFC fluorescence, 24 h; activity change, negative = cytotoxicity: at 57.1 µM (top of the series) unless noted; further: nearly all actives have a fitted effect of over 30% in size;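 on activity change, negative = cytotoxicity: 0% = DMSO-treated cells and -100% = medium-only wells without cells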
Outline: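 HEK-293-SNCA-luc cells (1500/well) plated 24 h, then exposed 24 h to a dilution series; GF-AFC added 30 min at 37C, fluorescence 405/540 nm; normalised to medium-only and DMSO wells, Hill fit.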
Potency means the concentration at half of the fitted maximal effect; tags describe the fitted curve by direction and shape.

Structure (SMILES) | activity change, negative = cytotoxicity | Potency
CC1=C(C(=O)OC(C)C)C(c2ccc([N+](=O)[O-])cc2)N2C(CC(=O)N3CCOCC3)=CSC2=N1 (configuration not stated) | inactive: -26.6% | 
O=C(Nc1nccs1)C1CC(=O)N(c2n[nH]c3cccc(F)c23)C1 (configuration not stated) | inactive: 1.27% | 
C=C1C(=O)O[C@@H]2C[C@H](C)[C@@H]3CC(=O)C(C)=C3C[C@H]12 |  | inconclusive: 29.9 µM [cytotoxic, single point]
CN1C(=O)C2(CCN(C(=O)c3ccn(C(C)(C)C)c3)CC2)c2ccccc21 | inactive: -17.7% | 
CC(C)Cc1cc(CNc2nccc(-c3cc(C(=O)O)ccn3)n2)no1 | inactive: 2.4% | 
CN1[C@@H](CCC(=O)NCc2cccnc2)CNC(=O)[C@@H]2[C@H]1CCN2Cc1ccc(O)cc1 | inactive: -6.82% | 
COc1ccc(C2=CC(c3ccc(N(C)C)cc3)n3nnnc3N2)cc1 (configuration not stated) |  | inconclusive: 28.2 µM [rising, partial curve, poor fit]
COCCn1nnnc1C1CC2(CCOCC2)C(=O)N1Cc1ccc(C)c(C)c1 (configuration not stated) |  | inconclusive: 3.16 µM [cytotoxic, partial curve, poor fit]
CN(Cc1cccnc1)c1ccc2ncc(Nc3ccc4c(c3)OCO4)n2n1 |  | inconclusive: 15.8 µM [cytotoxic, partial curve, poor fit]
COCCCn1c(=N)c(C(=O)NC2CCCCC2)cc2c(=O)n3ccccc3nc21 |  | inconclusive: 14.1 µM [rising, partial curve, poor fit]
CN1CCN(c2ncc3nc(-c4cccs4)c(=O)n(C[C@H]4CCCO4)c3n2)CC1 |  | inconclusive: 22.4 µM [rising, partial curve]
CCOC(=O)C1(Cc2ccccc2F)CCCN(C(=O)c2c(C)nc3sccn23)C1 (configuration not stated) | inactive: 4.41% | 
CCNc1ncc2nc(-c3ccc(OC)cc3)c(=O)n(C[C@H]3CCCO3)c2n1 |  | inconclusive: 14.1 µM [rising, partial curve]
CCCCN(CC)CCCNC(=O)c1cn(CC(C)C)c(=O)c2c1c1ccccc1n2C |  | inconclusive: 28.2 µM [cytotoxic, partial curve, poor fit]
O=C(O)C[C@@H]1CCN(C(=O)Nc2ccc(OC(F)(F)F)cc2)C[C@@H]1CCN1C[C@@H]2C[C@H](C1)c1cccc(=O)n1C2 | inactive: 5.55% | 
CC(C)=C/C=C\[C@H](C)[C@H]1CC[C@]2(C)C[C@@H]3C(C)=CC(=O)C3/C(CO)=C\C[C@@H]12 (some centres not stated) |  | inconclusive: 0.0465 µM [cytotoxic, full curve, poor fit]
Cc1ccc(-c2ncc(C(=O)Nc3ccccc3Cl)c(-c3ccncc3)n2)cc1 |  | inconclusive: 39.8 µM [cytotoxic, single point]
CSc1cccc(NC(=O)Cn2c(Nc3cc(C)cc(C)c3)nc(C)cc2=O)c1 |  | inconclusive: 39.8 µM [cytotoxic, partial curve, poor fit]
CC1=C[C@@H](CC#N)[C@H](C(C)C)C[C@H]1CC(=O)NC1CCCCC1 | inactive: -20.5% [at 87.6 µM] | 
Cc1ccc(-c2noc([C@@H]3Cc4nc[nH]c4CN3Cc3ccc(N(C)C)cc3)n2)cc1 | inactive: -15.3% [at 87.6 µM] | 
Cn1nc(C2CCCC2)cc1NC(=O)C1CC1 | inactive: -2.37% [at 87.6 µM] | 

Structure (SMILES) | activity change, negative = cytotoxicity | Potency
CC(CCO)Nc1nc2c(c(=O)n(C)c(=O)n2C)n1Cc1ccc(Br)cc1 (configuration not stated) |  | inconclusive: 28.2 µM [rising, partial curve, poor fit]
COc1ccc(OC)c(-c2nc3c(C)cccc3cc2CN2CCCC(O)C2)c1 (configuration not stated) |  | inconclusive: 10 µM [cytotoxic, partial curve, poor fit]
Cc1ccccc1Nc1c(-c2cccc(O)c2)nc2ccc(Br)cn12 | inactive: -28.8% | 
Cc1ccc(C(=O)NC2CCN(c3cc(-c4cccs4)[nH]n3)C2)c(C)c1 (configuration not stated) | inactive: -6.83% | 
COc1ccc(-c2nc3cnc(N4CCOCC4)nc3n(-c3ccccc3)c2=O)cc1 |  | inconclusive: 2.51 µM [rising, full curve, poor fit]
CN(Cc1cn(C)c2ccccc12)C1CCc2nn(CC3CC3)c(=O)n2CC1 (configuration not stated) |  | inconclusive: 14.1 µM [cytotoxic, partial curve]
CCOc1ccc(-c2cc3c(=O)n(CC(O)c4ccc(C(C)C)cc4)ccn3n2)cc1 (configuration not stated) | inactive: 3.63% | 
O=C1CC(c2ccccc2)N(C(=O)CNC(=O)c2c[nH]c3ccccc23)CCCCCN1 (configuration not stated) | inactive: -2.67% | 
COc1ccc(-c2cc(N3CCCN(C(=O)Cc4ccccc4Br)CC3)n[nH]2)cc1 |  | inconclusive: 20 µM [cytotoxic, partial curve, poor fit]
CCN1CCN(C(=O)C2CCCN2C(=O)c2cccc(-c3cccc(OC)c3)c2)CC1 (configuration not stated) |  | inconclusive: 8.91 µM [cytotoxic, single point]
COc1ccc(-c2nnn3c2nc(NCc2ccccc2)c2ccccc23)cc1 |  | inconclusive: 15.8 µM [rising, partial curve, poor fit]
CCOc1ccc(-c2nonc2NC(=O)c2oc3ccc(Cl)cc3c2C)cc1 |  | inconclusive: 11.2 µM [cytotoxic, partial curve, poor fit]
COc1ccc2[nH]cc(CCNc3ncnc4ccc(-c5ccccc5OC)cc34)c2c1 |  | inconclusive: 39.8 µM [cytotoxic, single point]
COc1cccc(-c2nc(NCCNC(C)=O)c3ccccc3n2)c1 |  | inconclusive: 25.1 µM [cytotoxic, single point]
COc1ccccc1CNc1ncnc2ccc(-c3cccc(NS(C)(=O)=O)c3)cc12 |  | inconclusive: 39.8 µM [cytotoxic, single point]
Cc1ccc(Cc2nc3ccccc3nc2SCC(=O)N2CCCCC2)cc1 |  | inconclusive: 39.8 µM [cytotoxic, single point]
O=c1oc2c(F)cc(F)cc2cc1S(=O)(=O)c1ccc(F)cc1 |  | inconclusive: 12.6 µM [rising, partial curve]
CCn1nc(C)c(-c2cc(C(=O)N3CCc4nc5cc(-c6ccccc6)[nH]n5c(=O)c4C3)no2)c1C | inactive: -2.08% | 
O=C(c1cc(F)ccc1Cl)N1CCN(c2cc(-c3ccccc3)[nH]n2)CC1 | inactive: 0.898% | 
Cc1ccc(NC(=O)N2c3ccccc3CC2c2nc(C3CC3)no2)c(C)c1 (configuration not stated) |  | inconclusive: 11.2 µM [cytotoxic, partial curve, poor fit]
CCC(Sc1nc2n[nH]c(C)c2c(=N)n1-c1ccc(Br)cc1)C(=O)N(CC)CC (configuration not stated) |  | inconclusive: 35.5 µM [cytotoxic, single point]

Structure (SMILES) | activity change, negative = cytotoxicity | Potency
CC(C)N1C(=O)CO[C@H]2CCN(Cc3ccccc3Cl)CC[C@@H]21 | inactive: -15.2% [at 87.6 µM] | 
CNC(=O)c1nc2cccnc2n(C2CC2)c1=O | inactive: 10.6% [at 87.6 µM] | 
O=C1CC2(CCN([S+](=O)([O-])c3cccc(C(F)(F)F)c3)CC2)Oc2ccccc2N1c1ccccc1 |  | inconclusive: 10 µM [cytotoxic, partial curve]
COc1ccc(C(=O)N2CCc3ccc(C(=O)NCc4cccc(OC)c4)cc32)cc1 |  | inconclusive: 14.1 µM [cytotoxic, partial curve, poor fit]
O=C(c1ccccc1)N1CCN(Cc2ccccc2-c2ccccc2F)CC1 |  | inconclusive: 7.94 µM [cytotoxic, full curve]
CCOC(=O)c1c(NC(=O)COc2ccc(OC)cc2)sc(C(=O)N(CC)CC)c1C |  | inconclusive: 25.1 µM [cytotoxic, partial curve]
CN1CCN(c2ncc3nc(-c4cccc(C#N)c4)c(=O)n(CCC#N)c3n2)CC1 |  | inconclusive: 4.47 µM [rising, full curve, poor fit]
CCC1=Nc2cc(C(=O)N3CCC(C)CC3)ccc2Sc2ccc(C)cc21 |  | inconclusive: 14.1 µM [cytotoxic, partial curve, poor fit]
COc1ccc(-c2noc(CNC(=O)c3ccc(OC)cc3OC)n2)cc1 |  | inconclusive: 22.4 µM [cytotoxic, partial curve, poor fit]
C[C@@]1(C(=O)Nc2ccc(F)nc2)CCCN1c1nc(Nc2cc(C3CC3)[nH]n2)c2cccn2n1 |  | inconclusive: 1.52 µM [cytotoxic, full curve, poor fit]
Cc1ccc(Nc2ccnc(N3CCC(NC(=O)Cc4cccc(Cl)c4)CC3)n2)cc1 |  | inconclusive: 25.1 µM [cytotoxic, single point]
Fc1ccc(CN2CC[C@H](c3nnc(Cc4ccccc4)o3)C2)cc1F | inactive: -14.2% [at 87.6 µM] | 
COc1ccc(NC(=O)Cn2c(-c3ccccc3)nc(C)c(CCO)c2=O)cc1Cl |  | inconclusive: 31.6 µM [cytotoxic, partial curve, poor fit]
Cc1cc(F)ccc1-c1[nH]nc2ncc(-c3cccnc3)nc12 |  | inconclusive: 11.2 µM [cytotoxic, full curve]
CCOC(=O)c1cc2c(=O)n3ccccc3nc2n(CC2CCCO2)c1=NC(=O)c1ccc(OCC)cc1 (configuration not stated) |  | inconclusive: 35.5 µM [rising, single point]
Cc1cc(C)c(NC(=O)c2cc(S(=O)(=O)N3CCCC3)cn2C)c(C)c1 |  | inconclusive: 17.8 µM [rising, partial curve, poor fit]
COc1ccc(-c2cc(N3CCN(C(=O)c4ccccc4Br)CC3)n[nH]2)cc1 |  | inconclusive: 7.94 µM [cytotoxic, partial curve, poor fit]
CCOC(=O)C1=C(CN(CC)Cc2ccccc2)NC(=O)NC1c1ccc(Cl)cc1 (configuration not stated) |  | inconclusive: 31.6 µM [cytotoxic, single point]
CN1CC(=O)N(c2ccccc2)Cc2c(NCCCc3ccccc3)ncnc21 |  | inconclusive: 20 µM [cytotoxic, partial curve]
COc1ccc(-n2c(=O)c3c(c4cc(OC)ccc4n3C)n(Cc3c(F)cccc3Cl)c2=O)cc1 |  | inconclusive: 3.55 µM [cytotoxic, single point]
